“And” between values parts separate entries of the source, which are not always exact repeats. Equal entries are not always repeated. Among all 16,000 compounds or so, about 40 (0.2%) were called active. About 1% were inconclusive and are not listed. Calls follow the shape of the dose curve; as a rule, active = well fitted activation curve with a large enough effect; inconclusive = small, poorly fitted or top-dose-only effect, or another doubt; inactive = no such curve, though single readings can be large or run the other way. This is one part of the list.
% is scaled to controls: 0 for no effect and ±100 for the full control effect.

Chain of UniProt Q8WZA2 (Q8WZA2 whole entry, looked up): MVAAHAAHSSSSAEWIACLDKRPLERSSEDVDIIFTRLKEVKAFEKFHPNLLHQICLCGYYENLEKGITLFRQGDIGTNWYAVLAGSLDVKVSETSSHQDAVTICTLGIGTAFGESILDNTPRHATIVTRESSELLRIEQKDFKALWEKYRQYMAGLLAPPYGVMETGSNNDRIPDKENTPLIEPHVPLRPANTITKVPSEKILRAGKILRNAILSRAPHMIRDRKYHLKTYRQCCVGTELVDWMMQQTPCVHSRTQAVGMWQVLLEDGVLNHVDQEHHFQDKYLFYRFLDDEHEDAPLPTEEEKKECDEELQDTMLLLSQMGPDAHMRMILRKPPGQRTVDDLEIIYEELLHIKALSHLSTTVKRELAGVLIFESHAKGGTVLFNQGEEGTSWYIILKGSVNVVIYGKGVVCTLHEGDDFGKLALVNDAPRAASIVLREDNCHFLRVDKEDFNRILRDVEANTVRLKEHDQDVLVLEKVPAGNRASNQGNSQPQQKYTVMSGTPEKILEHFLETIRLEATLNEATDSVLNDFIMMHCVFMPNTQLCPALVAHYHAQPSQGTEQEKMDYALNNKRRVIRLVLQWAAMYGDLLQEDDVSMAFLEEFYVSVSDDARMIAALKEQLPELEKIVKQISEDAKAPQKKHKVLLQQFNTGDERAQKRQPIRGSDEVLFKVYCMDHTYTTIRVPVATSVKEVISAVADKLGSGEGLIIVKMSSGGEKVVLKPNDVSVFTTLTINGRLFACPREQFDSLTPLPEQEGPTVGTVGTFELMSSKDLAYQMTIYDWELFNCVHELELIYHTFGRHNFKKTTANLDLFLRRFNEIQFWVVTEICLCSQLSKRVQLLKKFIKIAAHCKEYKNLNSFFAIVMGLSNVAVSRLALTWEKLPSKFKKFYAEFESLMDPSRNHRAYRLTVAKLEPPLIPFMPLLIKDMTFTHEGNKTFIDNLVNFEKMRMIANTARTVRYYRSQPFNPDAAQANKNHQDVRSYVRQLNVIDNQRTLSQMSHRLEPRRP

The assay deals with Rap guanine nucleotide exchange factor 4 (Homo sapiens) (UniProt Q8WZA2). Nature of the assay: Validation qHTS for agonist of cAMP-regulated guanine nucleotide exchange factor 4 (EPAC2).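 Also: exchange makes BODIPY-GDP fluorescence drop when released from Rap1B; series mostly up to about 150 µM.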 To be noted: EPAC2 Rap1B BODIPY-GDP exchange, fluorescence; activation: stronger effect = higher value. An excerpt:
Principle Investigator: Xiaodong Cheng Ph.D.
The University of Texas Medical Branch, […], TX
In multi-cellular eukaryotic organisms, the effects of cAMP are transduced by two ubiquitously-expressed intracellular cAMP receptors, the classic protein kinase A/cAMP-dependent protein kinase (PKA/cAPK) and the more recently discovered exchange protein directly activated by cAMP/cAMP-regulated guanine nucleotide exchange factor (EPAC/cAMP-GEF). Both PKA and EPAC are ubiquitously expressed in all tissues, and an increase in intracellular cAMP levels will lead to the activation of both PKA and EPAC. Therefore, careful dissections of the individual role and relative contribution of EPAC and PKA within the overall cAMP signaling in various model systems are critical for further elucidating the mechanism of cAMP signaling. To date no EPAC-specific antagonists and agonist, as well as isoform-specific agonists have been reported, and developing EPAC-specific pharmacological probes to determine the physiological functions that EPAC play in the overall cAMP-mediated signaling remains a major challenge within the research field. Furthermore, identified regulators of EPAC may lead to new mechanism-based therapeutic strategies specifically targeting the EPAC / cAMP-signaling components as EPAC has been implicated to play important roles in major human pathological conditions such as diabetes, heart disease, and cancer.
This qHTS will be used to screen the Molecular Libraries Small Molecule Repository (MLSMR) as a concentration-titration series using the NCGC unique quantitative screening (qHTS) platform to find activators for EPAC1. In addition, this assay will also be used as a counterscreen for the EPAC2 qHTS. This fluorescent based assay is developed and validated for EPAC1 that measures exchange using EPAC effector Rap1 complex with BODIPY-GDP, a GDP analog with a tethered fluorophores. Activators are identified by monitoring the change in fluorescence signal as the exchanged free BODIPY-GDP has a reduced fluorescence compared to Rap1-bound BODIPY-GDP. Increase in signal (activation) is the desired outcome for the EPAC1 agonist while no activity in this assay is desired for the EPAC2 agonist counterscreen.
[1] de Rooij, J., Zwartkruis, F. J., Verheijen, M. H., Cool, R. H., Nijman, S. M., Wittinghofer, A., and Bos, J.L. (1998) Nature 396, 474-477.
Briefly, three uL of reagents (100 nM EPAC2, 250 nM RAP1B-BODIPY-GDP, 50 uM GDP) were dispensed into a 1536-well Greiner black solid-bottom medium binding assay plate. Controls and test compounds (23 nL) were transferred to the plate via a Kalypsys pin tool equipped with a 1536-pin array. The plates were centrifuged at 1,000 rpm for 15 seconds followed by 5 minute incubation at room temperature. The assay plates were read at 5 minute intervals for 30 minutes in the ViewLux plate reader using 480nm excitation and 540nm emission filters. The results were normalized to the agonist positive control of 6.5 mM cAMP.
For orientation: In qHTS, concentration-response curves come from the screen itself.
As for `C[C@@H](CN=[N+]=[N-])CN1CC[C@H](C(C)(C)C)CCC1=O`, the activation was inactive: -36.2%.
With `CC1(C)OC2CC3C4CCC5=CC(=O)CCC5(C)C4(F)C(O)CC3(C)[C@]2(C(=O)CCl)O1` (some centres not stated) the figure was inactive: -19.2%; with `OC[C@H]1O[C@@H](n2cnc3cncnc32)[C@H](O)[C@@H]1O`, inactive: -7.61% and inactive: -13.4%.
In the case of `CC(C)=CCC/C(C)=C/CC/C(C)=C/CC/C(C)=C/CC1=C(C)C(=O)c2ccccc2C1=O` it was inactive: -45% and inactive: -13.8%; in that of `CN1CCN(c2ncc3nc(-c4ccc(Cl)cc4)c(=O)n(C)c3n2)CC1`, inactive: 5.09%; in that of `CCn1nc(C)cc1C(=O)N1CCC2(CC1)c1ccccc1[C@@H](NC(=O)c1cccnc1)[C@@H]2O`, inactive: -19.1%.
With `Cc1ccccc1C1(CC(=O)N2CCCC2c2nccs2)CC(=O)N(C2CCCC2)C1=O` (configuration not stated) the figure was inactive: -0.368%; with `COc1cc(O)c(C)c(O)c1`, inactive: -15.3%.
With `O=C(Nc1ccc(Cl)c(Cl)c1)C1CC1`, the activation was inactive: -10.7%.
In the case of `Cn1cccc1C(=O)N1CCC2(CCCN(C(=O)Nc3cccc(F)c3)C2)CC1` it was inactive: -3.36%; in that of `C[C@H](C[C@H](N)C(=O)O)C(=O)O`, inactive: -13%; in that of `COc1cccc(CN2CCOc3ccc(CN4C[C@@H](C)O[C@@H](C)C4)cc3C2)c1OC`, inactive: -9.09%.
With `OCC(O)C(O)C(O)C(O)C(O)CO` (configuration not stated) the figure was inactive: -15.1%; with `CCC1(C2CCN(C(=O)c3ccc(C)cc3C)CC2)NC(=O)N(CCc2scnc2C)C1=O` (configuration not stated), inactive: -4.11%; with `N#CCCn1c(=O)c(-c2cccs2)nc2cnc(OCc3ccccc3)nc21`, inactive: 1.71%.
On to `CCn1c(-c2cccnc2)nc2cc(NC(=O)COC)cc(C(=O)N3CCOc4ccccc4C3)c21`, for which the activation is inactive: -16.1%.
In the case of `O=C(NCC1(N2CCCCC2)CCCCC1)c1ccc(-n2cc(NC(=O)c3cccnc3)cn2)cc1` it was inactive: -9.52%; in that of `CC1(C)C[C@@H]2C(=O)CCC3O[C@@]3(C)CCC21` (some centres not stated), inactive: -10.8%.
In the case of `COC(=O)c1cn([C@@H]2C[C@@H](C(=O)Nc3cccc(SC)c3)N(C3CCCCCC3)C2)nn1` it was inactive: -23.2%; in that of `COc1cc(-c2noc(C)c2/C=C/c2cccc([N+](=O)[O-])c2)cc(OC)c1OC`, inactive: -17.8%; in that of `COC(=O)C[C@H]1c2cc(C(F)(F)F)ccc2S(=O)(=O)N1Cc1ccccc1OC`, inactive: -20.8%.
In the case of `O=c1c(-c2ccccc2)nc2cnc(N3CCNCC3)nc2n1Cc1cccs1` it was inactive: 1.37%; in that of `NOCC(=O)O`, inactive: -16%; in that of `O=C(c1ccoc1)N1CCOc2ccc(CN3CCC(Oc4cccnc4)CC3)cc2C1`, inactive: 0.0897%.
Turning to `COC(=O)N1CCC2(CCN(Cc3ccccc3)CC2)CC1`, the activation was inactive: -26.1%.
With `COCCn1c(=O)c(CCc2ccccc2)nc2cnc(N3CCOCC3)nc21` the figure was inactive: -1.12%.
In the case of `CCCCNC(=O)[C@@H]1CC=C[C@@H]2CCN(C3CCCCC3)C(=O)[C@@H]21` it was inactive: -17.5%.
With `CC(=O)C[C@H]1c2cc(C(F)(F)F)ccc2S(=O)(=O)N1c1ccc(N(C)C)cc1` the figure was inactive: -25.3%; with `O=C(NCCc1ccccn1)C1CC12CCN(C(=O)c1c(F)cccc1Cl)CC2` (configuration not stated), inactive: 6.67%; with `COCCn1c(=O)c(-c2cccc(C#N)c2)nc2cnc(Nc3ccccc3)nc21`, inactive: -1.21%.
As to `N#Cc1cccc(-c2cncnc2NCc2cccs2)c1`, the activation was inactive: -3.99%.
In the case of `Cc1nc2ccc(CN(C)c3ccc(C(=O)N[C@@H](CCC(=O)O)C(=O)O)s3)cc2c(=O)[nH]1` it was inactive: -13.4% and inactive: -29.1%.
Turning to `Cc1ccc(CN2CCC(C3(c4ccccn4)NC(=O)N(CC4CCCO4)C3=O)CC2)cc1C` (configuration not stated), the activation was inactive: -5.22%.
In the case of `Cc1cnc(CNc2ncnc3ccc(-c4cccc(NS(C)(=O)=O)c4)cc23)cn1` it was inactive: -1.14%.
For the molecule `CC(=O)C[C@H]1c2cc(F)ccc2S(=O)(=O)N1c1ccc(N(C)C)cc1`, the activation was inactive: -22.8%.
In the case of `CCCCCOc1ccc(C2SC(=O)NC2=O)cc1OCC` (configuration not stated) it was inactive: -31.1%; in that of `COC(=O)/C(C)=C/CC12OC(C)(C)C3CC(C=C4C(=O)c5cc6c(c(CCC(C)(C)Cl)c5OC431)OC1(C)CCC(=C(C)C)C6C1)C2=O` (configuration not stated), inactive: -12%; in that of `Cn1cccc1C(=O)N1CCC2(CC1)CCN(c1ncccn1)CC2`, inactive: -15%.
In the case of `O=C(NC1CCCC1)c1cn(C2CCN(Cc3cccc4cccnc34)CC2)nn1` it was inactive: -0.657%.
With `CO/N=C(\C(=O)N[C@@H]1C(=O)N2C(C(=O)O)=C(C[N+]3(C)CCCC3)CS[C@H]12)c1csc(N)n1` the figure was inactive: 8.13%; with `CCOC(=O)[C@H](CCc1ccccc1)N[C@@H](C)C(=O)N1CCC[C@H]1C(=O)O`, inactive: -12.2%; with `COC(=O)c1ccccc1-c1cc(C)cc2c1OC(CNC(=O)c1cnc(C)cn1)C2` (configuration not stated), inactive: -3.74%.
Take `O=C1CC2(CCCC2)CC(=O)N1CCNCC1COc2ccccc2O1` (configuration not stated): the activation was inactive: -5.63%.
Consider `CCCCOc1cc(C[C@@H]2CNC(=O)N2)ccc1OC`, for which the activation is inactive: -40.7%.
In the case of `Cc1cc(Cn2cnc3c2C[C@@H](C(=O)O)N(C(=O)C(c2ccccc2)c2ccccc2)C3)ccc1N(C)C` it was inactive: -15.9%.
As to `NC[C@@H]1O[C@H](c2ccccc2)Cc2c1ccc(O)c2O`, the activation was inactive: 2.89% and inactive: -16.8%.
With `COCCN(C)C(=O)c1cnn(-c2nccc(-c3cc(OC)ccc3OC)n2)c1C` the figure was inactive: -5.86%; with `CN(C)C(=O)[C@@H]1C[C@@H](Sc2nc3ccccc3[nH]2)CN1Cc1ccc(Cl)cc1`, inactive: -9.47%.
As to `Cn1nnnc1SCC1=C(C(=O)O)N2C(=O)[C@@H](NC(=O)[C@H](OC=O)c3ccccc3)[C@H]2SC1`, the activation was inactive: -8.42%.
In the case of `COc1ccccc1CNc1ncncc1-c1ccc(C(=O)N(C)C)cc1` it was inactive: -0.138%; in that of `Cc1ccc2c(c1)CN(CCNC(=O)C(C)Oc1ccccc1)CC(C)O2` (configuration not stated), inactive: 1.72%; in that of `COC(=O)c1c(OCc2ccccn2)cc(=O)n2c1CCN(Cc1ccc3nsnc3c1)CC2`, inactive: -7.89%.
